# In the supplement of paper PMC6828730:
# Values joined by “and” are separate entries in the source; they are usually repeats but may differ in a detail not shown here. Identical values can stand only once. The list shows a part of the results. Repeats are few or missing, and single values can be far off.
# Experiments:
# [1] = tested on: hiPSC-derived cardiomyocytes; assay: time to death of most cells in well after compound addition (days); higher = less cardiotoxic; details: screen: 1; 10 µM
# [2] = tested on: hiPSC-derived cardiomyocytes; assay: time to death of most cells in well after compound addition (days); higher = less cardiotoxic; extreme values may be limits of the assay; details: 10 µM
SMILES,time to death of most cells in well [1],time to death of most cells in well ([2]; screen: 2),time to death of most cells in well ([2]; screen: 3),time to death of most cells in well ([2]; screen: 4)
CC(C)CCN1c2nc(Nc3cc(F)c(O)c(F)c3)ncc2N(C)C(=O)C1C (configuration not stated),> 7,> 7,> 7,> 7
C1=N/C2=N/c3ccc(OCCN4CCCC4)c(c3)COC/C=C/COCc3cccc(c3)C(=C1)N2 [Pacritinib (SB1518)],1.5,1,4,5
CCn1c2ccccc2c2cc(Nc3ccnc(NCCCN4CCOCC4)n3)ccc21,1,1,2.5,1.5
CC(C)(C)c1cc(/C=C(\C#N)C(N)=S)cc(C(C)(C)C)c1O [Tyrphostin AG 879],> 7,5.5,0,> 7
Oc1cccc(-c2nc(N3CCOCC3)c3oc4ncccc4c3n2)c1,3.5,4,> 7,3
C[C@@H](N)[C@H]1CC[C@H](C(=O)Nc2ccncc2)CC1,> 7,> 7,> 7,> 7
C[C@H](NC(=O)/C(C#N)=C/c1cccc(Br)n1)c1ccccc1,> 7,6.5,> 7,> 7
Cn1cc(-c2ccc3nnc(C(F)(F)c4ccc5ncccc5c4)n3n2)cn1,> 7,1.5,> 7,> 7
Cc1cnc(-c2cnc(NCCNc3ccc(C#N)cn3)nc2-c2ccc(Cl)cc2Cl)[nH]1,2.5 and 3,> 7 and 5.5,> 7,> 7
Cc1cn(-c2cc(NC(=O)c3ccc(C)c(Nc4nccc(-c5cccnc5)n4)c3)cc(C(F)(F)F)c2)cn1 [Nilotinib (AMN-107)],> 7,> 7,> 7,> 7
Nc1cccc(-c2cc3c(Oc4cccc(O)c4)ncnc3[nH]2)c1,4.5,3,> 7,> 7
O=C1NCCc2[nH]c(-c3ccncc3)cc21,5,3,2.5,> 7
O=C(c1ccc(Nc2nccc(-c3cc4ccccc4s3)n2)cc1)N1CCC(N2CCCC2)CC1 [IKK-16 (IKK Inhibitor VII)],0.5,1,1.5,1
O=C(O)c1ccc(Nc2ncc3c(n2)-c2ccc(Cl)cc2C(c2c(F)cccc2F)=NC3)cc1,> 7,> 7,> 7,> 7
COc1cc2nccc(Oc3ccc(NC(=O)Nc4cc(C)on4)c(Cl)c3)c2cc1OC [Tivozanib (AV-951)],3,> 7,> 7,> 7
Cc1cnc(Nc2ccc(F)cc2Cl)nc1-c1c[nH]c(C(=O)NC(CO)c2cccc(Cl)c2)c1 (configuration not stated),3,2,3,> 7
O=C1NC(=O)C(c2ccccc2[N+](=O)[O-])=C1Nc1ccc(O)c(Cl)c1,> 7,> 7,> 7,> 7
CNC(=O)c1cc(Oc2ccc(NC(=O)Nc3cc(C(C)(C)C)nn3-c3ccc4ncccc4c3)c(F)c2)ccn1 [Rebastinib (DCC-2036)],6,6,> 7,> 7
COc1cc2nccc(Oc3ccc(NC(=O)NC4CC4)c(Cl)c3)c2cc1C(N)=O [Lenvatinib (E7080)],> 7,> 7,> 7,> 7
C[C@@H](NC(=O)c1ncnc(N)c1Cl)c1ncc(C(=O)Nc2cc(C(F)(F)F)c(Cl)cn2)s1,> 7,> 7,> 7,> 7
CCN(C)S(=O)(=O)Nc1ccc(F)c(C(=O)c2c[nH]c3ncc(-c4cnc(C5CC5)nc4)cc23)c1F,> 7,> 7,> 7,> 7
CC(C)n1nc(-c2ccc3oc(N)nc3c2)c2c(N)ncnc21,4.5,3.5,> 7,> 7
O=C(Nc1cccc(Nc2ncc(Br)c(NCCc3cnc[nH]3)n2)c1)N1CCCC1,5,> 7,> 7,> 7
O=c1[nH]c2ccccc2n1C1CCN(Cc2ccc(-c3[nH]c4cc5ncnc5cc4nc3-c3ccccc3)cc2)CC1,> 7,4,> 7,> 7
COc1ccc(CNC(=O)Nc2ncc([N+](=O)[O-])s2)cc1,2,2,2.5,> 7
CO[C@H]1CC[C@H](N2C(=O)CNc3ncc(-c4ccc(C(C)(C)O)nc4)nc32)CC1,2,2,> 7,> 7
COc1ccc(-c2ccc3c(N4CCOCC4)nc(N4C[C@@H](C)O[C@@H](C)C4)nc3n2)cc1CO,3,3,> 7,> 7
OCCn1cc(-c2cnc3nnn(Cc4ccc5ncccc5c4)c3n2)cn1,> 7,> 7,> 7,> 7
